Hit rate of the full screen: of about 410,000 compounds, about 7,200 (1.8%) were called active. Inconclusive means that the source gave no clear call. Such entries were picked first, then a sample of the others. The call rests on the fitted dose curve; in most records, active means well fitted activation curve with a large enough effect; inconclusive means small, poorly fitted or top-dose-only effect, or another doubt; inactive means no such curve, though single readings can be large or run the other way. No potency is given beside an inconclusive call; the fits are too rough.
Assay: qHTS of TDP-43 Inhibitors; further: nearly all actives have a fitted effect of over 50% in size; on growth rescue (activation): % of control where 0% means no effect
Settings: TDP-43 expressing yeast growth rescue, BacTiter-Glo, 24 h; growth rescue (activation): at 46.1 µM (top of the series) unless noted
Procedure, shortened: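 Growth rescue of TDP-43-toxic yeast measured as ATP luminescence (BacTiter-Glo). Cells grown to mid-log in raffinose, induced in galactose at OD600=0.02, exposed to compound 24 hr at 30 deg C.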
For `O=C(C1CCN(S(=O)(=O)c2ccccc2)CC1)N1CCN(c2ccccc2)CC1`, the “growth rescue (activation)” value was inactive: 0%.
For `O=C(NCc1ccc(C(F)(F)F)cc1)c1ccc(-c2ccc(F)c(F)c2)c2ccoc12`, the “growth rescue (activation)” value was inactive: -3.43%.
With `CN(C)c1ccc(NC(=O)CCSc2nc(-c3ccco3)cc(C(F)(F)F)n2)cc1` the “growth rescue (activation)” value was inactive: 18.6%.
For `CCOc1ccc(-n2c(=O)c3c(C)c(C)sc3n(CC(=O)c3ccccc3)c2=O)cc1`, the “growth rescue (activation)” value was inactive: 6.35%.
With `Clc1ccc(Cn2ncc3c(N4CCOCC4)ncnc32)cc1` the Potency was inconclusive [activator, single point].
In the case of `Nc1ccc(N=Nc2ccccc2)cc1[N+](=O)[O-]`, the “growth rescue (activation)” value is reported as inactive: 4.65%.
With `Cc1cc2n(n1)C(c1ccccc1)Nc1ccccc1-2` (configuration not stated) the Potency was inconclusive [activator, single point].
In the case of `COc1ccc(NC(=O)c2ccco2)cc1NC(=O)c1cccc(F)c1`, the Potency is reported as inconclusive [activator, partial curve].
For `CCN1CCN(c2c(S(=O)(=O)c3ccc(C)c(C)c3)cnc3cc(OC)c(OC)cc23)CC1`, the “growth rescue (activation)” value was inactive: 0.982%.
With `c1ccc(CCCNc2ncnc3nc[nH]c23)cc1` the Potency was inconclusive [activator, full curve].
In the case of `O=C(COc1ccc2c(c1)OCO2)Nc1ccccc1F`, the Potency is reported as inconclusive [activator, full curve].
For `CCOc1cc(CNc2ccc(O)cc2)ccc1OCc1ccc(Cl)cc1`, the Potency was active: 35.5 µM.
In the case of `CC(C)[C@H](NC(=O)c1c(F)cccc1F)C(=O)OCC(=O)NNC(=O)c1ccccc1`, the “growth rescue (activation)” value is reported as inactive: -3.68%.
In the case of `CCN(C(=O)c1c(-c2ccccc2)noc1C)c1ccccc1`, the Potency is reported as inconclusive [activator, partial curve, poor fit].
In the case of `Cc1ccc(N2C(=S)N=C(Nc3ccccc3C)C23CCOC(C)(C)C3)cc1` (configuration not stated), the Potency is reported as inconclusive [activator, full curve].
In the case of `Cn1nc([N+](=O)[O-])nc1Oc1ccc(C(C)(C)C)cc1`, the Potency is reported as inconclusive [activator, single point].
With `Cc1c(C(=O)NCc2ccccc2Br)oc2c1-c1[nH]ncc1CC2` the Potency was inconclusive [activator, single point].
With `O=C(O)CC[C@@H](C(=O)O)N1C(=O)c2ccccc2C1=O` the Potency was inconclusive [activator, partial curve].
For `COc1ccc(CNC(=O)C2CC(c3ccccc3C(F)(F)F)=NO2)cc1` (configuration not stated), the Potency was inconclusive [activator, single point].
In the case of `CCN1CCN(c2c(S(=O)(=O)c3ccc(OC)cc3)cnc3cc(OC)c(OC)cc23)CC1`, the “growth rescue (activation)” value is reported as inactive: 19.1%.
With `O=C(Nc1ccccc1)N1CCN(c2cccc(C(F)(F)F)c2)CC1` the Potency was inconclusive [activator, single point].
In the case of `O=C(C/C=N/OCc1ccc(F)cc1Cl)c1cnc(-c2ccccc2)s1`, the “growth rescue (activation)” value is reported as inactive: 1.8%.
For `O=C(Nc1nc(OCC(F)(F)F)cnc1/C=C\c1ccccc1)c1ccsc1`, the “growth rescue (activation)” value was inactive: 3.72%.
In the case of `COc1ccc(CN(C(=O)c2ccco2)c2ccccc2)cc1`, the Potency is reported as inconclusive [activator, partial curve].
For `CCc1cc2c(C)cc(=O)oc2cc1OC(=O)C1CCCN1C(=O)OC(C)(C)C` (configuration not stated), the Potency was inconclusive [activator, single point].
In the case of `O=C1c2ccccc2C(O)N1c1ccc(Cl)cc1` (configuration not stated), the Potency is reported as inconclusive [activator, partial curve].
In the case of `COc1ccc(CCNC(=O)C(C)c2ccc([N+](=O)[O-])cc2)cc1` (configuration not stated), the Potency is reported as inconclusive [activator, single point].
With `Fc1cccc(NC(=S)N2CCc3ccccc32)c1` the Potency was active: 14.1 µM.
For `CC(C)Cn1c(=O)c2ccccc2n2c(CCC(=O)N3CCN(c4ccccc4F)CC3)nnc12`, the “growth rescue (activation)” value was inactive: 10.4%.
For `COc1ccc(C(CNC(=O)c2oc3ccc(C)cc3c2C)N2CCOCC2)cc1` (configuration not stated), the “growth rescue (activation)” value was inactive: 23.8%.
In the case of `COc1cccc(CCNC(=O)c2cc(COc3cccc(OC)c3)on2)c1`, the Potency is reported as inconclusive [activator, single point].
With `COc1ccc(-c2nnc(SCC(=O)N3CCCC(C)C3)o2)c(OC)c1` (configuration not stated) the Potency was inconclusive [activator, single point].
In the case of `COc1ccc(Nc2nnc(SCC(=O)N3CCCC3)s2)cc1`, the Potency is reported as inconclusive [activator, full curve, poor fit].
With `O=C(OCC(=O)C12CC3CC(CC(C3)C1)C2)c1ccc(O)cc1O` the Potency was inconclusive [activator, single point].
With `O=C(CSc1ccccc1)Nc1nnc(COc2ccc(Cl)cc2)s1` the growth rescue (activation) was inconclusive: -92.9% [activator].
With `Cc1c(C(=O)NCc2cccc(Cl)c2)sc(=O)n1Cc1cccc(F)c1` the Potency was inconclusive [activator, single point].
For `COc1ccc2cc(N3CCCC3=O)ccc2c1`, the Potency was inconclusive [activator, partial curve].
For `CCOC(=O)C[C@H]1c2cc(F)ccc2S(=O)(=O)N1c1cccc(OC)c1`, the Potency was inconclusive [activator, single point].
With `CCOC(=O)c1c(C)oc2ncnc(Nc3ccc(OCC)cc3)c12` the “growth rescue (activation)” value was inactive: 11.9%.
In the case of `O=C(O)CN1C(=O)/C(=C\c2cccc(OCc3ccc(Cl)cc3)c2)SC1=S`, the Potency is reported as inconclusive [activator, full curve].
With `COc1ccc(C(=O)CSC(=S)N2CCCCC2)cc1` the Potency was inconclusive [activator, partial curve].
In the case of `COc1ccc(S(=O)(=O)N2CCOCC2)cc1OC`, the “growth rescue (activation)” value is reported as inactive: 10.5%.
For `COc1ccc(NC(=O)CN(c2ccc(C)cc2)S(C)(=O)=O)c(OC)c1`, the “growth rescue (activation)” value was inactive: 10.7%.
With `Cc1ccc(Cl)cc1NC(=O)CSC1=Nc2ccccc2C2=NC(Cc3ccccc3)C(=O)N12` (configuration not stated) the “growth rescue (activation)” value was inactive: 6.29%.
For `COCCNC(=S)N/N=C(\C)c1ccc(C)c([N+](=O)[O-])c1`, the Potency was inconclusive [activator, partial curve].
For `COc1cc(C(=O)NC(C)c2ccc3ccccc3c2)cc(Cl)c1O` (configuration not stated), the Potency was inconclusive [activator, partial curve].
In the case of `O=C(COC(=O)c1nc(Cl)ccc1Cl)Nc1ccc(Cl)cc1`, the Potency is reported as active: 15.8 µM.

From PubChem BioAssay AID652104 (National Center for Advancing Translational Sciences (NCATS), 2013)
Potency means the concentration at half of the fitted maximal effect; tags describe the fitted curve by direction and shape.
